{"source": "PubChem BioAssay AID1347417", "about": "(National Center for Advancing Translational Sciences (NCATS), 2020)", "note": "Values joined by “and” are separate entries in the source; they are usually repeats but may differ in a detail not shown here. Identical values can stand only once. Among all 120,000 compounds or so, about 5,300 (4.4%) were called active. The shares of active, inactive and inconclusive entries below differ from those in the screen. Calls follow the shape of the dose curve; as a rule, active = well fitted inhibition curve with a large enough effect; inconclusive = small, poorly fitted or top-dose-only effect; inactive = no such curve, though single readings can be large or run the other way. Potencies of inconclusive entries are doubtful fits and often do not repeat. Potency is read from the fitted curve at half-maximal effect; tags tell the direction and shape of the fitted curve."}
{"assay": "qHTS Primary assay for Inhibitors of Plasmodium falciparum Dd2 growth in vitro; also: nearly all actives have a fitted effect of over 65% in size;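 as to activity, negative = inhibition: plate controls were DMSO vehicle for no effect and reference drug for full effect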", "conditions": "P. falciparum Dd2 growth, SYBR Green, 72 h; activity, negative = inhibition: at 28.9 µM (top of the series) unless noted; series mostly up to 28.9 µM", "method_in_brief": "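Readout: SYBR Green fluorescence, 485 nm excitation, 535 nm emission, after ~16 h lysis at 37C. Before that, Dd2-infected red cells (2.5% hematocrit) grew 72 h with compound, 29 uM top final concentration.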"}
{"smiles": "O=C(CCC[C@H]1NC[C@@H]2C[C@H]1CN(Cc1ccccc1)C2)NC1CCN(Cc2ccccc2)CC1", "Potency": "inconclusive: 17.8 µM [inhibitor, single point]"}
{"smiles": "Cc1ccc(NCc2cccn2-c2nnc(N3CCC(C(=O)NCCc4ccc(Cl)cc4)CC3)s2)cc1", "Potency": "inconclusive: 12.6 µM [inhibitor, partial curve, poor fit]"}
{"smiles": "COc1ccc(-c2ccc3ncc(Nc4ccccc4Cl)n3n2)cn1", "Potency": "inconclusive: 5.62 µM [inhibitor, single point]"}
{"smiles": "O=C(c1ccc(F)c(F)c1)N1CCC2(CC1)N(c1ccccc1)C(=O)CS2(=O)=O", "Potency": "inconclusive: 1.41 µM [inhibitor, full curve, poor fit]"}
{"smiles": "COC(=O)[C@@H]1Cc2ncn(Cc3ccc(OC)cc3)c2CN1S(C)(=O)=O", "Potency": "inconclusive: 1.58 µM [inhibitor, partial curve]"}
{"smiles": "CC(C)(C)c1cnc([C@@H]2COCCN2Cc2ccccc2O)[nH]1", "Potency": "active: 2 µM"}
{"smiles": "COc1ccc(OCC(=O)Nc2ccc(-c3nc4cc(C)cc(C)c4o3)cc2)cc1", "Potency": "inconclusive: 12.6 µM [inhibitor, single point]"}
{"smiles": "Cc1nc(N2CCC(C(=O)NCCc3ccccc3)CC2)cc(C(F)(F)F)n1", "Potency": "inconclusive: 20 µM [inhibitor, single point]"}
{"smiles": "COc1cccc(C(=O)N2CCCC(c3[nH]ccc3C(N)=O)C2)c1OC", "note": "(stereo not given)", "activity, negative = inhibition": "inactive: 28.9%"}
{"smiles": "Cc1ccc(C(=O)N2CCC3(CC2)C(C(=O)O)CC(=O)N3C)s1", "note": "(stereo not given)", "activity, negative = inhibition": "inactive: 7.3%"}
{"smiles": "O=C1Nc2ccccc2OCC12CCN([S+](=O)([O-])c1ccccc1)CC2", "activity, negative = inhibition": "inactive: 8.58%"}
{"smiles": "CN1CCC2(Cc3ccccc3CN(C(=O)Cc3cccc(Cl)c3)C2)C1", "note": "(stereo not given)", "Potency": "inconclusive: 11.2 µM [inhibitor, partial curve, poor fit]"}
{"smiles": "O=C(c1ccc(C(F)(F)F)cc1)N1CCN(C2CCN(Cc3cccnc3)C2=O)CC1", "note": "(stereo not given)", "Potency": "inconclusive: 2.51 µM [inhibitor, full curve]"}
{"smiles": "CN1CCCCCCN(S(C)(=O)=O)[C@H]2CCC[C@H]2C1=O", "activity, negative = inhibition": "inactive: 12.4%"}
{"smiles": "CCCn1cc(S(=O)(=O)c2ccc(C)cc2)c(=O)c2cc(F)c(N3CCCC3)cc21", "Potency": "inconclusive: 0.126 µM [inhibitor, full curve, poor fit]"}
{"smiles": "O=C(CN1CCCc2nc(C3CC3)ncc2C1=O)NCC1CC1", "activity, negative = inhibition": "inactive: 0.848%"}
{"smiles": "CC1CN(C(=O)N2CCC(C(=O)NCCCc3ccccc3)CC2)c2cc(Cl)ccc2O1", "note": "(stereo not given)", "Potency": "inconclusive: 20 µM [inhibitor, single point]"}
{"smiles": "Cc1cn2nc(C(=O)NCc3ccccc3Cl)cc2c(=O)[nH]1", "Potency": "inconclusive: 1.26 µM [inhibitor, full curve, poor fit]"}
{"smiles": "COc1ccc(-c2cc(N3CCCN(C(=O)c4ccc(C)c(C)c4)CC3)n[nH]2)cc1", "Potency": "inconclusive: 1 µM [inhibitor, partial curve, poor fit]"}
{"smiles": "Cc1cc(C(=O)N2CCCCCCNC(=O)[C@@H]3C[C@@H](c4nc(-c5cccnc5)no4)C[C@@H]32)nn1C", "Potency": "inconclusive: 6.31 µM [inhibitor, partial curve, poor fit]"}
{"smiles": "O=C1Cc2c(-c3cccc(N4CCOCC4)c3)n[nH]c2CN1CCOc1ccccc1", "Potency": "inconclusive: 7.94 µM [inhibitor, partial curve, poor fit]"}
{"smiles": "COc1ccc2nc([C@H]3CCN(Cc4ccc(NC(C)=O)cc4)C3)[nH]c2c1", "Potency": "inconclusive: 31.6 µM [inhibitor, single point]"}
{"smiles": "Cc1cc(C)n(Cc2cccc(C(=O)N[C@@H]3CCNC[C@H]3O)c2)n1", "activity, negative = inhibition": "inactive: 1.58%"}
{"smiles": "Cc1ccc(-n2cc(-c3ccccc3)c3c(N4CCCCC4)ncnc32)cc1", "Potency": "inconclusive: 12.6 µM [inhibitor, single point]"}
{"smiles": "CC(C)OC(=O)c1cccc(NC(=O)Cn2nnc3sc4c(c3c2=O)CCCC4)c1", "Potency": "inconclusive: 0.199 µM [inhibitor, full curve]"}
{"smiles": "O=C(N[C@@H]1CN(C(=O)NC2CCCCC2)CCC[C@H]1O)c1ccc(OCc2ccccc2)cc1", "Potency": "inconclusive: 4.47 µM [inhibitor, partial curve, poor fit]"}
{"smiles": "COc1cccc(CN2Cc3nc(-c4cccc(O)c4)ccc3OCC2=O)c1", "outcome": "inactive [at 44.1 µM]"}
{"smiles": "COCCC1(C(=O)O)CCCN(C(=O)CN(C)Cc2ccncc2)C1", "note": "(stereo not given)", "activity, negative = inhibition": "inactive: -27.1%"}
{"smiles": "CCCN(CC1CCOC1)C(=O)Nc1cccc(F)c1", "note": "(stereo not given)", "activity, negative = inhibition": "inactive: 18.6% [at 5.79 µM]"}
{"smiles": "COc1cccc(CN2C(=O)CCCCC2C(=O)N2CCc3ccccc3C2)c1", "note": "(stereo not given)", "Potency": "inconclusive: 17.8 µM [inhibitor, single point]"}
{"smiles": "CC(=O)NC[C@@H]1C=C(C)[C@H](Cc2nc3ccccc3n2C)C[C@H]1C(C)C", "outcome": "inactive [at 44.1 µM]"}
{"smiles": "O=C(CCC1CCCC1)N1CCC(Cc2nc(C3CCOCC3)no2)CC1", "outcome": "inactive"}
{"smiles": "CCn1cc(CN2CCC3(CC2)CN(c2ccncn2)CC3CO)c(C)n1", "note": "(stereo not given)", "Potency": "inconclusive: 17.8 µM [inhibitor, single point]"}
{"smiles": "O=C(CN1CCOc2c(O)cc(-c3csc4ccccc34)cc2C1)N1CCOCC1", "Potency": "inconclusive: 17.8 µM [inhibitor, single point]"}
{"smiles": "CCCOc1ccc(CNC(=O)CCCn2ncn3c(cc4sc(CC)cc43)c2=O)cc1", "Potency": "inconclusive: 17.8 µM [inhibitor, single point]"}
{"smiles": "Cc1nn(-c2ccc(F)cc2)c(Oc2ccccc2F)c1CCC(=O)N1CCCC1", "Potency": "inconclusive: 2.51 µM [inhibitor, single point]"}
{"smiles": "CCNc1cc(N2CCC(CCC(=O)N3CCN(c4ncccn4)CC3)CC2)ncn1", "Potency": "inconclusive: 11.2 µM [inhibitor, single point]"}
{"smiles": "CCN(CC)C(=O)[C@@H](C)C1CC[C@@]2(C)CC[C@H](NC(=O)COc3ccccc3)[C@@H](C)[C@@H]2[C@H]1O", "note": "(stereo not given in full)", "Potency": "inconclusive: 0.141 µM [inhibitor, full curve]"}
{"smiles": "Cc1c(-c2ccccc2F)[nH]c2ccc(CNC(=O)C3CCNC3)cc12", "note": "(stereo not given)", "Potency": "inconclusive: 10 µM [inhibitor, single point]"}
{"smiles": "O=C(CCC1CCCC1)N1CCC2(CC1)CC(N(Cc1ccc(F)cc1)C1CC1)CCO2", "note": "(stereo not given)", "Potency": "active: 3.55 µM"}
{"smiles": "Cc1ccc(S(=O)(=O)N2CCN(C(=O)c3cc(-c4ccc(Br)cc4)n[nH]3)CC2)c(C)c1", "Potency": "inconclusive: 17.8 µM [inhibitor, single point]"}
{"smiles": "COc1cccc(CN2CCC3(CCC3OC)CC2)c1", "note": "(stereo not given)", "activity, negative = inhibition": "inactive: -6.21%"}
{"smiles": "CC(=O)N1CCN(C(=O)c2ncoc2C2CC2)CC(O)C1", "note": "(stereo not given)", "activity, negative = inhibition": "inactive: -7.77%"}
{"smiles": "Cc1ncoc1C(=O)N1CCC(C(=O)N2CCCCCCNC(=O)CC2)CC1", "activity, negative = inhibition": "inactive: -11.5%"}
{"smiles": "CN1CCc2[nH]cnc2C12CCN(C(=O)c1cc(=O)[nH]c3ccccc13)CC2", "activity, negative = inhibition": "inactive: -1.23%"}
{"smiles": "Cc1ccc(CN2CCC(c3nn(Cc4ccccc4)c(=O)[nH]3)CC2)cc1", "Potency": "inconclusive: 12.6 µM [inhibitor, single point]"}
{"smiles": "Cc1ccc(C)c(C(=O)Nc2cccc(-c3nnc4n3CCCC4)c2)c1", "Potency": "inconclusive: 3.55 µM [inhibitor, partial curve, poor fit]"}
{"smiles": "Cn1cnnc1CCC(=O)N[C@H](c1ccccn1)C1CC(O)C1", "note": "(stereo not given in full)", "activity, negative = inhibition": "inactive: -20.2%"}
{"smiles": "O=C(NC1CCOCC1)c1ccc2c(c1)OCCN(c1ccccc1)C2", "outcome": "inactive [at 44.1 µM]"}
{"smiles": "COc1ccc(CN2CC[C@H](c3nnc(-c4ccccc4)o3)C2)cc1", "Potency": "inconclusive: 14.1 µM [inhibitor, single point]"}
{"smiles": "COc1ccc(C)cc1NC(=O)C1CN(S(=O)(=O)c2cccnc2)CC12CCCCC2", "note": "(stereo not given)", "Potency": "inconclusive: 17.8 µM [inhibitor, single point]"}
{"smiles": "COc1cccc(-c2nnnn2[C@H]2CO[C@H]3[C@@H]2OC[C@@H]3NC(=O)c2ccc(N(C)C)cc2)c1", "Potency": "inconclusive: 8.91 µM [inhibitor, partial curve, poor fit]"}
{"smiles": "Cc1ccc(C(=O)N2CCC(C(NC(=O)CC(C)C)C(=O)N3CCCCC3)CC2)cc1", "note": "(stereo not given)", "outcome": "inactive"}
{"smiles": "O=C1CC(c2ccccc2)Sc2ccccc2N1Cc1ccc(F)cc1", "note": "(stereo not given)", "Potency": "inconclusive: 17.8 µM [inhibitor, single point]"}
{"smiles": "CN1C(=O)CCCCC1C(=O)NCc1cccc(F)c1", "note": "(stereo not given)", "activity, negative = inhibition": "inactive: -7.13%"}
{"smiles": "O=C(Cc1cccn1-c1ccc(F)cc1)NCc1ccc(N2CCOCC2)cc1", "Potency": "inconclusive: 22.4 µM [inhibitor, partial curve, poor fit]"}
{"smiles": "O=C(c1cccnc1)N1CCC2(CNS(=O)(=O)c3cnccc3O2)C1", "note": "(stereo not given)", "activity, negative = inhibition": "inactive: 17.8%"}
{"smiles": "Cc1ccc2nc(C3CCCN(Cc4cccc(-c5cccnc5)c4)C3)[nH]c(=O)c2c1", "note": "(stereo not given)", "Potency": "active: 8.91 µM and active: 6.31 µM"}
{"smiles": "C[S+](=O)([O-])N1CCN(c2cccc(C=O)c2)C(=O)C1", "activity, negative = inhibition": "inactive: 2.59% [at 44.1 µM]"}
{"smiles": "COc1ccc(C)cc1NC(=O)C(=O)NCC(c1cccnc1)N1CCc2ccccc21", "note": "(stereo not given)", "Potency": "inconclusive: 17.8 µM [inhibitor, single point]"}
{"smiles": "Cc1cc(=O)n(CC(=O)Nc2ccccc2C)c(N2CCN(c3ccccc3)CC2)n1", "Potency": "inconclusive: 17.8 µM [inhibitor, single point]"}
{"smiles": "O=C(CC(c1cccc(F)c1)c1cn(Cc2ccccc2)c2ccc([N+](=O)[O-])cc12)N1CCCC1", "note": "(stereo not given)", "Potency": "inconclusive: 3.55 µM [inhibitor, single point]"}
{"smiles": "Cc1ccc(C)c(Cn2c(=O)n(Cc3ccccc3)c(=O)c3c(C)c(C)sc32)c1", "Potency": "inconclusive: 17.8 µM [inhibitor, single point]"}
{"smiles": "CCOC(=O)CCn1nc(-c2ccc(C)cc2)c2ccccc2c1=O", "Potency": "inconclusive: 0.1 µM [inhibitor, full curve, poor fit]"}
{"smiles": "O=C(c1ccc(Cl)nc1)N1CCC(c2nn(-c3ccc(Cl)cc3)c(=O)[nH]2)CC1", "Potency": "inconclusive: 2.24 µM [inhibitor, partial curve, poor fit]"}
